Measurements published in PubChem BioAssay AID493208 (National Center for Advancing Translational Sciences (NCATS), 2011).
About 340 (0.77%) of roughly 44,000 compounds were called active. Another 5% or so got no clear call; they are omitted. Calls follow the shape of the dose curve; as a rule, active = well fitted inhibition curve with a large enough effect; inconclusive = small, poorly fitted or top-dose-only effect; inactive = flat fitted curve, though single readings scatter. Some of the results follow.

experiment: Acumen qHTS Assay for Inhibitors of the mTORC1 Signaling Pathway in MEF (Tsc2-/-, p53-/-) Cells: Sytravon; details: phospho-rpS6 immunofluorescence/PI, 24 h; series mostly up to 38.3 µM; activity change, negative = inhibition: at the top concentration;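 also: plate controls were DMSO for no effect and rapamycin for full effect; nearly all actives have a fitted effect of over 50% in size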
Procedure, shortened: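 Cell-based qHTS: Tsc2-/- p53-/- MEF, 24 h cpd, 37 °C; fix/perm, anti-phospho-S6 Alexa-488 + PI; Acumen 488 nm scan; pS6/PI ratio, % positive cells; rapamycin 7.5 nM = inhibition ref; PI count = viability.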

Activity change, negative = inhibition, inactive:
O=C(CCS(=O)(=O)c1cccc2nonc12)Nc1ccc(F)cc1F -4.27%
Cc1oc(-c2ccccc2Cl)nc1CSc1nncn2c1cc1occc12 -1.61%
COc1ccc(Br)cc1CNC(=O)Cn1ncn2nc(-c3cccs3)cc2c1=O -0.0839%
COc1ccc2c(Sc3ccccc3)c(C(=O)NCc3cc(Br)ccc3OC)[nH]c2c1 -4.1%
Cc1ccc(OCC(=O)Nc2nc(-c3ccc(Br)cc3)ns2)cc1 -0.876%
COc1ccccc1CNC(=O)c1ccc(CSc2nc3ccncc3n2Cc2cccc(F)c2)cc1 0.691%
O=C(NCCc1ccc(F)cc1)C(=O)NCC(c1cccs1)S(=O)(=O)c1ccccc1 (stereo unspecified) -21.9%
O=C(CC(c1cccs1)N1Cc2ccccc2C1=O)Nc1cccc(F)c1 (stereo unspecified) 0%
CCCn1ccc2c(OCC(=O)Nc3ccc(OC)c(OC)c3)cccc2c1=O -0.354%
CCOc1ccccc1CNc1nc2nc(C)c(CC(=O)OC)c(=O)n2[nH]1 -3.26%
Cc1cccc(-c2nc(C)c(CCNC(=O)C(=O)Nc3ccc(C)c(C)c3)s2)c1 0.107%
O=C(CSc1nc(=O)[nH]c2c1CCC2)NCc1ccc(F)cc1 -11.2%
COc1ccc(Cl)cc1S(=O)(=O)N1CCN(C(=O)c2cc(-c3ccc(Br)cc3)n[nH]2)CC1 -15%
Cc1ccc(-n2ncc3c(N4CCN(Cc5ccccc5)CC4)ncnc32)cc1 0.128%
Cc1cccc(C(=O)Nc2ccc(S(=O)(=O)N3CCCCC3c3cccnc3)cc2)c1 (stereo unspecified) -1.29%
CCOc1ccc(NC(=O)c2oc3ccccc3c2NC(=O)Cc2cccc(C)c2)cc1 3.81%
COc1ccc(OC)c(NS(=O)(=O)c2ccc(Br)s2)c1 -7.24%
CC(C)c1ccc(NC(=O)CCNS(=O)(=O)c2cccc3nsnc23)cc1 -0.495%
CN1CCN(CCC(=O)Nc2ccc(Cl)cc2)CC1 -4.82%
COc1ccc(C(=O)Oc2ccc(C(c3c(C)[nH][nH]c3=O)c3c(C)[nH][nH]c3=O)cc2OC)cc1 -3.06%
Cc1ccc(NC(=O)Cn2c(=O)ccc3cc(S(=O)(=O)N4CCC(C)CC4)ccc32)cc1C -2.36%
CCCN1C(C(=O)c2ccccc2)=C(OC(=O)c2ccc(C)cc2)c2ccccc2S1(=O)=O 3.52%
Cc1cccc(NC(=O)CSc2nc(=O)n(Cc3cccnc3)c3c2CCC3)c1 -4.99%
COc1ccc(NC(=O)c2c(C)oc3ccc(O)c(CN4CCOCC4)c23)cc1 6.28%
O=C(COc1ccc(Cl)cc1)NCCc1csc(-c2cccc(F)c2)n1 1.67%
COc1cc(NC(=O)c2ncn(-c3ccccc3)n2)cc(OC)c1 -10.3%
Cn1ncc(C(=O)N2CCN(c3ccccc3F)CC2)c1C1CCN(C(=O)OC(C)(C)C)CC1 4.08%
CC(=O)c1ccc(NC(=O)CSc2nccn2Cc2ccc3c(c2)OCO3)cc1 -11%
Cc1cc(SCC(=O)NCc2ccc(F)cc2)nc(=O)[nH]1 0.699%
CCCCN(CC)CCCNC(=O)c1cn(CC)c2ccc(S(=O)(=O)N3CCOCC3)cc2c1=O -13.9%
O=C(COCc1cc(-c2ccco2)on1)Nc1cccc(Cl)c1Cl -9.37%
COc1ccc(C2N3CC4(C)CN2CC(c2ccccc2)(C3)C4=O)cc1 (stereo unspecified) 1.25%
CCOc1ccccc1-n1nnc(S(=O)(=O)c2ccc(C)cc2)c1N -9.27%
CCOc1ccc(NC(=O)CN2CCN(c3ccc(Cl)cc3)CC2)cc1 10.8%
O=C(c1cc(F)cc(F)c1)N1CCC(c2nc(-c3ccc(S(=O)(=O)N4CCCC4)cc3)no2)CC1 -3.69%
COc1ccc(OC)c(CCNC(=O)c2cc3c(=O)n(C)c4ccccc4c3n2C)c1 1.97%
COc1ccc(CN(C(=O)Cc2coc3ccc(C)cc23)C2CCS(=O)(=O)C2)cc1 (stereo unspecified) -8.72%
CCOC(=O)c1cccc(NC(=O)C2CCCN(S(=O)(=O)c3cc(Br)cc4c3N(C(=O)CC)CC4)C2)c1 (stereo unspecified) -3.03%
CCc1cccc(NC(=O)CCN2C(=O)c3ccccc3Sc3ncccc32)c1 -14.7%
COc1cc(Cl)c(C)cc1NC(=O)c1cc2c(s1)-c1c(C)cccc1OC2 -8.63%
O=C(Cn1c(=O)nc(-c2ccccc2)c2cc(Cl)ccc21)NCCc1ccccc1 10.2%
CCc1nn(CC(=O)N2CCN(c3cccc(C)c3C)CC2)c(=O)c2cc3sccc3n12 0.845%
CCC(=O)N1CCc2cc(S(=O)(=O)NC(CC(C)C)C(=O)NCc3ccc(C)cc3)ccc21 (stereo unspecified) -18.2%
Cc1ccc(O)c(-c2n[nH]c3c2C(c2ccccc2F)N(Cc2ccco2)C3=O)c1 (stereo unspecified) -3.32%
Cc1sc2ncn(CC(=O)N3CCN(c4ccc(F)cc4)CC3)c(=O)c2c1S(=O)(=O)N1CCN(c2ncccn2)CC1 0.0376%
Cc1cc2[nH]c(=O)c(=O)[nH]c2cc1S(=O)(=O)Nc1cccc(C(F)(F)F)c1 1.81%
COc1cccc(CNC(=O)CCS(=O)(=O)c2ccc3c(c2)CC(C)N3C(=O)C2CC2)c1 (stereo unspecified) -5.37%
O=C1c2oc3ccccc3c(=O)c2C(c2cccc(Br)c2)N1c1ccccn1 (stereo unspecified) -7.95%
Cc1ccccc1NC(=O)Nc1cccs1 -0.798%
CNC(=O)c1ccc(NC(=O)COc2ccc(-c3nn(C)c(=O)c4ccccc34)cc2)cc1 -17.8%
CCCCN(C)C(=O)Cn1cnc2sc(C)c(S(=O)(=O)N3CCN(c4ccccc4OC)CC3)c2c1=O -5.62%
Cc1ccc(OCC(=O)N(Cc2sccc2C)C2CCS(=O)(=O)C2)cc1 (stereo unspecified) -5.69%
Cc1ccc2onc(CC(=O)N3CCN(c4cccc(C)c4C)CC3)c2c1 7.52%
CCOc1ccc(NC(=O)Cn2c(CCC(=O)O)ccc2-c2ccc(C)cc2)cc1 1.23%
Clc1ccc(Nc2nc(-c3ccccc3)c3cc(Cl)ccc3n2)cc1 5.31%
COc1ccc(-c2noc(CSc3nnc(-c4ccncc4)n3-c3ccc(C)c(C)c3)n2)cc1 -4.81%
COc1cc(NC(=O)CC(C)S(=O)(=O)c2cc3c4c(c2)CCN4C(=O)CC3)cc(OC)c1 (stereo unspecified) 9.02%
Cc1ccccc1C(=O)Nc1cccc(C(=O)OCc2cc(=O)n3nc(C4CC4)sc3n2)c1 5.36%
COc1ccc(Cn2c(CO)cnc2SCC(=O)NCc2ccco2)cc1 -0.913%
Cc1ccc(C)c(CN2C(=O)c3ccccc3Sc3ccc(C(=O)NCc4ccc5c(c4)OCO5)cc32)c1 -9.86%
COc1ccc(NC(=O)c2c(NC(=O)c3cccc(C)c3)sc3c2CCCC3)cc1 -13.1%
